From PubChem BioAssay AID1259400 (National Center for Advancing Translational Sciences (NCATS), 2018)
Screen size: about 350,000 compounds; about 2,100 (0.6%) were called active. Inconclusive means that the source gave no clear call. Such entries were picked first, then a sample of the others.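 Rule for the calls: active = activity change of -60% or lower, but not beyond a set lower limit; inconclusive = change between -60% and -40%, or beyond the set limit; inactive = change above -40%.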 Where a structure was tested more than once in an assay, its records may differ in their call.
% is set by controls: 0 for no effect and ±100 for the full control effect.

The compounds below were run against Relaxin receptor 1 (Homo sapiens) (UniProt Q9HBX9) (assay: qHTS Assay for Antagonists of the Relaxin Receptor RXFP1). Conditions: HEK293-RXFP1, relaxin-stimulated cAMP HTRF, 30 min; at 57.5 µM; active compounds read low.
Chain of UniProt Q9HBX9 (Q9HBX9 whole entry, looked up): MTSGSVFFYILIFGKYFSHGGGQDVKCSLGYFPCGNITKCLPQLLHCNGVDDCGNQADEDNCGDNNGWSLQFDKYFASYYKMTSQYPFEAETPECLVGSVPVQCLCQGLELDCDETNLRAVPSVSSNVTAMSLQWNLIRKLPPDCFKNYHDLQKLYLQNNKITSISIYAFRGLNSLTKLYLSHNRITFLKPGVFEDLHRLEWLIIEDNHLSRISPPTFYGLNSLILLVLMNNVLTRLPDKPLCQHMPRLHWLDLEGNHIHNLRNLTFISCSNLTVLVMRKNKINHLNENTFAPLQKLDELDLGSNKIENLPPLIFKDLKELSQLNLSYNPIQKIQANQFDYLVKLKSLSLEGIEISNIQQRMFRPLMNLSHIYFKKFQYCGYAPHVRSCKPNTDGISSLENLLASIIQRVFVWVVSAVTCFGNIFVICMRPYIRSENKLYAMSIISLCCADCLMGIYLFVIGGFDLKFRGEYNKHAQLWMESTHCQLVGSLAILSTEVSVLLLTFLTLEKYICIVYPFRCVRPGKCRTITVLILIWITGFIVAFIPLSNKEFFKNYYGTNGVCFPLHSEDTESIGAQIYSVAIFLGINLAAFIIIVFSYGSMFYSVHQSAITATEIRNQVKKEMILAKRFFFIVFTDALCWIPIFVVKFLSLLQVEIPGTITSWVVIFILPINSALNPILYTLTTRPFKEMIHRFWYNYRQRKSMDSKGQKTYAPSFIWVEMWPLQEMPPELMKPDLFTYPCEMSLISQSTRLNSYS
In the case of `C/C(=N/N1CCN(Cc2cccc3ccccc23)CC1)c1cccnc1`, the activity change, negative = inhibition is reported as inconclusive: -47.1%. With `CSc1ncccc1C(=O)Nc1nc2ccc(F)cc2s1` the activity change, negative = inhibition was inconclusive: -49.4%. In the case of `Cc1ccc(Cl)cc1N1CCN(C(=O)c2cccn2-c2nnc(N3CCCC3)s2)CC1`, the activity change, negative = inhibition is reported as active: -82.7%. `O=C(CSc1ccc(Cl)cc1)N1CCN(c2ncc(C(F)(F)F)cc2Cl)CC1` was tested, and the activity change, negative = inhibition was inactive: 0.508%. For `O=C(CN1c2ccccc2Sc2ccccc21)NNC(=O)Nc1ccc(Cl)c(Cl)c1`, the activity change, negative = inhibition was inconclusive: -50.7%. With `CC1(C)Oc2cc(N)c([N+](=O)[O-])cc2O1` the activity change, negative = inhibition was inactive: 4.52%. In the case of `O=C(CC1C(=O)N(c2ccccc2)C(=S)N1c1ccccc1)c1ccc(Br)cc1` (stereo unspecified), the activity change, negative = inhibition is reported as active: -73.2%. For `O=C1c2cccc3c([N+](=O)[O-])ccc(c23)C(=O)N1c1ccc(Cl)cn1`, the activity change, negative = inhibition was inactive: -31.1%. In the case of `CCCN1C(=O)c2cc(C(=O)Nc3ccccc3OC)ccc2C1Nc1ccccc1OC` (stereo unspecified), the activity change, negative = inhibition is reported as inconclusive: -50.6%. In the case of `Fc1ccc(-c2ccc(CNCCSc3nnnn3-c3ccccc3)o2)cc1Cl`, the activity change, negative = inhibition is reported as inconclusive: -45.8%. For `CC(=O)Nc1cccc(Oc2ccc3c(c2)C(=O)NC3=O)c1`, the activity change, negative = inhibition was inactive: -8.62%. `Cc1ccccc1C(=O)N1CCC(C(=O)Nc2ccccc2N2CCCC2)CC1` was tested, and the activity change, negative = inhibition was inconclusive: -58.1%. In the case of `CCCn1cc(CN2CCC(Cc3ccccc3)(C(=O)OCC)CC2)c(C)n1`, the activity change, negative = inhibition is reported as inconclusive: -44.8%. For `COc1ccc(NC(=O)c2ccc3c(=O)n(-c4ccc(OC)cc4OC)c(=S)[nH]c3c2)cc1`, the activity change, negative = inhibition was inactive: -12.6%. `C=CCN1C(c2ccc(Br)cc2)=CS/C1=C(\C#N)c1nnc(N2CCOCC2)n1-c1ccccc1` was tested, and the activity change, negative = inhibition was inconclusive: -40.6%. In the case of `O=C(Nc1cccc(-c2nc3ccccc3s2)c1)C1=COCCO1`, the activity change, negative = inhibition is reported as active: -79.9%. `FC(F)(F)c1cccc(N2CCN(Cc3nnc(-c4ccc5c(c4)OCO5)o3)CC2)c1` was tested, and the activity change, negative = inhibition was inconclusive: -42.9%. For `O=c1oc2ccccc2cc1-c1csc(NN=C2CCCC2)n1`, the activity change, negative = inhibition was inactive: -1.81%. `COc1cc(CNC(C)(C)CO)cc(Br)c1OCc1ccc(Cl)cc1` was tested, and the activity change, negative = inhibition was inconclusive: -40.8%. With `CCCCOCCCNC(=O)N[C@H](C(=O)O)C(C)CC` (stereo partly specified) the activity change, negative = inhibition was inactive: 5.4%. For `CCc1ccc(OCC(=O)N/N=C(\C)c2ccc(OC(F)F)cc2)cc1`, the activity change, negative = inhibition was inconclusive: -56.4%. For `COc1ccc(CN(C)C(=O)c2cc(S(=O)(=O)NCc3ccccc3)ccc2C)c(OC)c1`, the activity change, negative = inhibition was inconclusive: -57.6%. For `CC(C)(C)NC(=O)NC(=O)CSc1ccc(S(=O)(=O)N2CCCCC2)cn1`, the activity change, negative = inhibition was inconclusive: -51.4%. For `O=C(COc1ccc(Cl)cc1Cl)NCCCNC(=O)c1cnccn1`, the activity change, negative = inhibition was inconclusive: -51.2%. In the case of `Oc1ccc(-c2csc(Nc3ccccn3)n2)cc1O`, the activity change, negative = inhibition is reported as active: -63.1%. In the case of `O[C@@H](c1cc(C(F)(F)F)nc2c(C(F)(F)F)cccc12)[C@H]1CCCCN1`, the activity change, negative = inhibition is reported as inconclusive: -49%. In the case of `Cc1cccc(N2CCN(C(=O)CCC(=O)N3CCOc4ccc(Cl)cc43)CC2C)c1` (stereo unspecified), the activity change, negative = inhibition is reported as inactive: -2.83%. `O=C(Cc1nc2ccccc2[nH]c1=O)c1ccccc1` was tested, and the activity change, negative = inhibition was inactive: -6.45%. For `O=C1c2ccc3c4c(ccc(c24)C(=O)N1c1cccc(O)c1)CC3`, the activity change, negative = inhibition was inconclusive: -42.2%. For `CC(CN1c2ccccc2Sc2ccccc21)N(C)C` (stereo unspecified), the activity change, negative = inhibition was inconclusive: -47.7%. In the case of `COc1ccc(OC)c(Cc2nnc(CCC(=O)NC3CCCC3)o2)c1`, the activity change, negative = inhibition is reported as inconclusive: -40.8%. `CC(C)Oc1ccc(C(=O)N(Cc2ccco2)Cc2cccs2)cc1` was tested, and the activity change, negative = inhibition was inconclusive: -42.2%. In the case of `Cc1ccc(NCc2nc3ccccc3n2CCOc2ccccc2)cc1`, the activity change, negative = inhibition is reported as active: -62%. `O=C(/C=C/c1ccc(-c2ccccc2[N+](=O)[O-])o1)c1ccco1` was tested, and the activity change, negative = inhibition was active: -63.5%. `CCOc1ccccc1NC(=O)c1c(NCc2sccc2C)sc2c1CCCCC2` was tested, and the activity change, negative = inhibition was inconclusive: -43.3%. In the case of `COCCNC(=O)COCc1cc(-c2ccc3c(c2)OCO3)on1`, the activity change, negative = inhibition is reported as inactive: 8.56%. With `CC(=O)Nc1ccc(C(=O)OCC(=O)Nc2ccccc2Sc2ccccc2)cc1` the activity change, negative = inhibition was inactive: -0.818%. With `O=C(CCl)Nc1nc(-c2ccco2)c(-c2ccco2)s1` the activity change, negative = inhibition was inconclusive: -44.1%. For `COc1ccc(C2Nc3ccccc3C(=O)N2Cc2ccco2)cc1CN1C(=O)c2ccccc2C1=O` (stereo unspecified), the activity change, negative = inhibition was inconclusive: -48.1%. In the case of `CC(C)NC(=O)COC(=O)c1ccc(S(=O)(=O)N2CCCC2)cc1`, the activity change, negative = inhibition is reported as active: -97.6%. In the case of `COc1ccc(OC)c(CN2CCCC(C(=O)c3ccccc3SC)C2)c1` (stereo unspecified), the activity change, negative = inhibition is reported as inconclusive: -43.9%. `COc1ccccc1/C=C/C=N/n1c(-c2cc(-c3ccccc3)n[nH]2)n[nH]c1=S` was tested, and the activity change, negative = inhibition was inconclusive: -46.8%. With `COCCN(CCOC)c1nc(-c2ccc(C)cc2)nc2ccccc12` the activity change, negative = inhibition was inconclusive: -48.9%. With `N#C/C(=C\c1ccc([N+](=O)[O-])cc1)C(=O)NCCCn1ccnc1` the activity change, negative = inhibition was inactive: -13.4%. In the case of `COc1ccc(Cc2nc3c4cnn(-c5ccccc5F)c4ncn3n2)cc1`, the activity change, negative = inhibition is reported as inconclusive: -42.5%. With `Cc1ccc(C)c(NC(=O)Cn2cc(C(=O)c3cccs3)c3ccccc32)c1` the activity change, negative = inhibition was inactive: -15.7%. With `Cc1cc(S(=O)(=O)Nc2ccc(C(=O)O)cc2)c(C)c(S(=O)(=O)c2ccc(Cl)cc2)c1` the activity change, negative = inhibition was inactive: -5.42%. For `O=C(Nc1ccccc1[N+](=O)[O-])c1ccc(S(=O)(=O)N2CCCC2)cc1`, the activity change, negative = inhibition was inactive: 5.32%. With `COC(=O)COc1ccc2c(=O)c(-c3ccccc3)coc2c1` the activity change, negative = inhibition was inconclusive: -45%. For `COC(=O)c1ccccc1NC(=O)c1ccc(NC(=O)C2CCCO2)cc1` (stereo unspecified), the activity change, negative = inhibition was inconclusive: -44.7%. With `O=c1o[nH]c(-c2ccccc2)c1C=Nc1ccc(Cl)cc1` the activity change, negative = inhibition was inconclusive: -42.4%. `COc1ccc(NC(=O)Nc2nnc(-c3ccncc3)s2)cc1` was tested, and the activity change, negative = inhibition was inactive: -26.5%. With `O=C(NC12CC3CC(CC(C3)C1)C2)c1ccccc1` the activity change, negative = inhibition was inconclusive: -52.7%. For `CCOC(=O)c1c(-c2ccc(-c3ccccc3)cc2)csc1NC(=O)CNCCN(C)C`, the activity change, negative = inhibition was active: -103%. With `CC(NC(=O)CCn1c(=S)[nH]c2ccsc2c1=O)c1ccccc1` (stereo unspecified) the activity change, negative = inhibition was inconclusive: -55.8%. For `O=C(Cn1cc(SCc2ccccc2F)c2ccccc21)N1CCCCC1`, the activity change, negative = inhibition was inconclusive: -48.3%.
